Source: PMC4336329 (PLoS ONE, 2015)
About 2,200 (0.71%) of roughly 310,000 compounds showed an effect of 50% or more. Effects have a minus sign here. The list shows a part of the results.

Biological target: human ether-à-go-go-related gene (hERG) potassium channel (human, UniProt Q12809)
Test: primary screen, population patch clamp on CHO cells stably expressing hERG

human ether-à-go-go-related gene (hERG) potassium channel, sequence (Q12809 whole entry, looked up): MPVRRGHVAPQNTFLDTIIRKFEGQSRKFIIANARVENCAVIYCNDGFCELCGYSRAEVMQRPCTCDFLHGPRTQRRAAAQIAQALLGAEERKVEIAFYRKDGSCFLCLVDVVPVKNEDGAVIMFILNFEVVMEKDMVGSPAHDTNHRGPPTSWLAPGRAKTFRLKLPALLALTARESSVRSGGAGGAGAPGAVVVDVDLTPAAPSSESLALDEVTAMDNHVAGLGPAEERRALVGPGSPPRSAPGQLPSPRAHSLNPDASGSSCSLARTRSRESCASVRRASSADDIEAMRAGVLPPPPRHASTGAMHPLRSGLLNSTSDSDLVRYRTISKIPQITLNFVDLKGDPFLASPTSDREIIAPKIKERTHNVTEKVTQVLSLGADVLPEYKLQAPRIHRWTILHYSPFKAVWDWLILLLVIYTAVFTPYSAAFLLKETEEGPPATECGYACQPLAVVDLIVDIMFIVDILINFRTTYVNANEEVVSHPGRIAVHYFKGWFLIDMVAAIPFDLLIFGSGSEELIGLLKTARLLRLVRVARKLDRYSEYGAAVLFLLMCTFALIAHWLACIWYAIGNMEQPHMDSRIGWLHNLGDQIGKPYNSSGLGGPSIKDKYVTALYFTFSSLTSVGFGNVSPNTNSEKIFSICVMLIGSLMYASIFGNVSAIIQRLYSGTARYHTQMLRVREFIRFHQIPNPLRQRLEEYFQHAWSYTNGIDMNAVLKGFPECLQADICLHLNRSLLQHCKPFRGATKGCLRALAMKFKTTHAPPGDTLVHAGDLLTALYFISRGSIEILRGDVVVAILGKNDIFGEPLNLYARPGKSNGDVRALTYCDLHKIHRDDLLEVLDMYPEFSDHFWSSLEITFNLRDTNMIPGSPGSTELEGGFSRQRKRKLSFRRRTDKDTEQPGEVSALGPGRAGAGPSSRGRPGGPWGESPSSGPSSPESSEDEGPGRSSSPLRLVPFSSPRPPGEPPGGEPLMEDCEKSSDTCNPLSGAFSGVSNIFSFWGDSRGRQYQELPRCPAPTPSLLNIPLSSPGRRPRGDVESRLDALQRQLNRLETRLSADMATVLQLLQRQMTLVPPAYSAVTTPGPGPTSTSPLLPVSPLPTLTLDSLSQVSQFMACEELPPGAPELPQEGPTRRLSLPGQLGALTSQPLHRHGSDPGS

| Compound | hERG current change (%, negative = inhibition) at 1uM [%] |
| --- | --- |
| CCn1cc(C(=O)O)c(=O)c2cnc(N3CCN(C(=S)NC(=O)c4ccccc4Cl)CC3)nc21 | 25.5 |
| CCCCNC(=O)N1CCN(c2ccnc3cc(Cl)ccc23)CC1 | -46.3 |
| O=C(O)c1cccc2c1C(=O)c1ccc(-c3ccc(Cl)c(C(F)(F)F)c3)cc1S2(=O)=O | 6.77 |
| COc1ccc(CNC(=O)C(C)N2C(=O)NC(c3ccccc3)(c3ccccc3)C2=O)cc1 (centres unmarked) | -56.1 |
| CC(=O)N(CCCN(C)C)CCC(C)CCC=C(C)C (centres unmarked) | 0.619 |
| Oc1ccc(-c2csc(Nc3cccnc3)n2)cc1 | 5.88 |
| Cc1cc(C)cc(NC(=O)NC2CCCCCCC2)c1 | 11.7 |
| NS(=O)(=O)c1ccc(NC(=O)COC(=O)COc2ccc3ccccc3c2)cc1 | 16.8 |
| CN1CC(=O)N(CC(=O)Nc2ccc(SC(F)F)cc2)C1=O | 2.95 |
| COc1ccc(-n2nc(C(=O)NCC(=O)NC(C)C)c3ccccc3c2=O)cc1OC | 9.79 |
| Nc1nc(-c2ccco2)nn1C(=O)c1ccc([N+](=O)[O-])cc1 | 13.6 |
| CC(=O)N1CCCN(Cc2cn(-c3ccc(C)cc3)nc2-c2ccc(F)cc2)CC1 | 4.46 |
| COc1ccccc1CNC(=O)C1CCC(=O)N(CCCc2ccccc2)C1 (centres unmarked) | 4.11 |
| CC1CCCC(NC(=O)NC(=O)COC(=O)C2=NN(c3ccccc3)C(=O)CC2)C1C (centres unmarked) | 13.6 |
| O=c1[nH]c(CN2CCc3ccccc32)nc2scc(-c3cccs3)c12 | 5.09 |
| CCCCNC(=O)CSc1nnc(-c2cccc(S(=O)(=O)N3CCOCC3)c2)o1 | 2.2 |
| CN1C(=O)/C(=C2\SC(N)=NC2=O)c2ccccc21 | 12.2 |
| Cc1ccc(NC(=O)CCc2nnc3ccc(N4CCC5(CC4)OCCO5)nn23)cc1F | 7.6 |
| CCN(CC)CCNC(=O)c1cc2cc3ccc(OC)cc3nc2o1 | 1.89 |
| COCCNC(=O)C(=O)Nc1ccc(Cl)cc1C | 7.33 |
| C=CCn1c(SCc2ccc(F)cc2)nnc1-c1sc2nc(C)cc(C)c2c1N | 8.23 |
| CCOC(=O)N1CCC(NC(=O)C(Cc2ccccc2)NC(=O)C2CCCCC2)CC1 (centres unmarked) | 2.7 |

| Compound | hERG current change (%, negative = inhibition) at 1uM [%] |
| --- | --- |
| Cc1[nH]c(=O)c(C#N)c(C)c1Cc1ccc(Cl)cc1Cl | 15.3 |
| COc1ccccc1N/N=C/c1c(CO)cnc(C)c1O.Cl | 8.9 |
| O=C(NCCCCc1ccccc1)C1CC(c2cccc([N+](=O)[O-])c2)=NO1 (centres unmarked) | 3.84 |
| COc1ccccc1-c1nnc2n1N=C(C(C)(C)C)CS2 | -12.6 |
| COC(=O)COc1ccc(S(=O)(=O)Nc2ccc(C(N)=O)cc2)cc1C | 20.7 |
| O=c1cc(-c2ccc(O)cc2)oc2c([C@@H]3O[C@H](CO)[C@@H](O)[C@H](O)[C@H]3O)c(O)c([C@@H]3O[C@H](CO)[C@@H](O)[C@H](O)[C@H]3O)c(O)c12 | 12.6 |
| C#Cc1ccc([C@@H]2C=C(C(=O)N3CCOCC3)O[C@H](OCCCCO)C2)cc1 | 15.1 |
| O=C1CN(C(=S)NC(=O)c2ccccc2[N+](=O)[O-])CCN1 | 20.7 |
| CCn1c(C)[n+](CCOC(C)=O)c2cc(Cl)c(Cl)cc21.[I-] | 4.53 |
| Cc1cccc(C)c1NS(=O)(=O)c1ccc(F)cc1 | 7.58 |
| COc1ccccc1OCC(=O)Nc1ccc(S(=O)(=O)N2CCCC2)cc1 | 2.95 |
| O=C(OCC(=O)N1CCN(S(=O)(=O)c2ccc(Cl)cc2)CC1)C1CCC1 | 13.6 |
| Cc1cccc(N2CCN(CC(=O)N(C3CCCC3)C3CCS(=O)(=O)C3)CC2)c1C (centres unmarked) | 3.4 |
| Cc1oc2c(C)c3oc(=O)c(CCC(=O)N[C@@H](CC(C)C)C(=O)O)c(C)c3cc2c1C | 18.4 |
| Cc1cc(C(=O)NC2CCCC2)c2ccccc2n1 | 12.3 |
| CCOc1ccc(OCC)c(NC(=O)C2CCN(S(=O)(=O)c3c(C)noc3C)CC2)c1 | 0.823 |
| FC(F)(F)c1cccc(Nc2nc(N3CCOCC3)nc(N3CCOCC3)n2)c1 | 17.8 |
| CCCn1nnc(NC(=O)Cc2ccccc2)n1 | 10.7 |
| Cc1cccc(N(C(=O)CCC(=O)Nc2cc(C)on2)C(C(=O)NC2CCCC2)c2ccncc2)c1 (centres unmarked) | 17.2 |
| C[N+]1(C)CCN(c2ccccc2)CC1.[I-] | 9.68 |
| Cc1oc(S(=O)(=O)N2CCCC2)cc1C(=O)Nc1ccccc1 | 11.1 |
| Cc1cccc2cc(C(c3nnnn3C3CCCC3)N3CCOCC3)c(=O)[nH]c12 (centres unmarked) | 8.2 |

| Compound | hERG current change (%, negative = inhibition) at 1uM [%] |
| --- | --- |
| C/C(=N\Nc1nc(N2CCOCC2)nc(N2CCOCC2)n1)c1cccs1 | 14.9 |
| C=CCOc1ccc(C(=O)NC2CCCCC2)cc1 | 11.7 |
| CC(=O)Nc1ccc(S(=O)(=O)N2CCN(Cc3ccccn3)CC2)cc1.O=C(O)C(=O)O | 6.25 |
| COc1ccccc1NC(=O)C1=C(C)NC(=O)NC1c1cccs1 (centres unmarked) | 16.2 |
| CC(c1ccon1)N(C)Cc1cn(C)nc1-c1cccc(Cl)c1 (centres unmarked) | 4.88 |
| CSc1nsc(SC)c1NC(=O)Nc1ccccn1 | 0.09 |
| COCCn1c(C)cc(C(=O)CSc2nnc(-c3cccnc3)n2-c2ccccc2F)c1C | 12.4 |
| C=CCN1C(=O)NC(c2ccc(OC)cc2)(C(F)(F)F)S/C1=C(\C#N)c1nnc(N2CCOCC2)n1-c1ccccc1 (centres unmarked) | -13.2 |
| O=C(CNC(=O)c1ccccc1)N/N=C/c1ccc([N+](=O)[O-])s1 | 7.58 |
| Cc1ncoc1C(=O)Nc1ccc(Oc2ccccc2)cc1 | -5.18 |
| CC1(C)Cc2c(C#N)c(N)sc(=S)c2CS1 | 4.45 |
| COC(=O)C1=C(C)N(Cc2ccccc2)C(=NCc2cc(OC)c(OC)c(OC)c2)N[C@H]1c1ccccc1 | 0.452 |
| CN(C)CCN=Cc1c(O)n(Cc2ccccc2)c(=O)c2ccccc12 | -6.8 |
| Cc1ccc(NS(=O)(=O)c2ccc(OCC(=O)Nc3cccc([N+](=O)[O-])c3)c(C)c2)cc1 | -3.93 |
| CC(C)Cn1c(N)c(C(=O)CSc2ccc3c(c2)OCCO3)c(=O)n(C)c1=O | 2.23 |
| Cc1ccc(C)c(NC(=O)c2c(Cl)nc3ccccn23)c1 | 8.88 |
| Cc1cccc(C(=O)Nc2c(C(=O)N(C)C)cnn2-c2ccccc2)c1 | 7.84 |
| C/C(=N\Nc1ccccn1)c1cccs1 | 10.3 |
| Cc1ccc2[nH]cc(/C=C/c3cc[n+](C)cc3)c2c1.[I-] | 9.99 |
| O=C(NC1CCCc2ccccc21)c1ccc(S(=O)(=O)N2CCOCC2)cc1 (centres unmarked) | 8.63 |
| O=C(NCC(c1cccs1)N1CCOCC1)c1cn(-c2ccccc2)nc1-c1ccc(F)cc1 (centres unmarked) | 6.86 |
| COC(=O)[C@H](C)NC(=O)NC(C)CCc1ccccc1 (some centres unmarked) | 5.2 |

| Compound | hERG current change (%, negative = inhibition) at 1uM [%] |
| --- | --- |
| CCOc1ccccc1N(C)C(=O)c1cc2c(=O)n(CC)c3ccccc3c2s1 | 5.65 |
| O=C(CSc1nc(=O)n2ccccc2n1)Nc1ccc2c(c1)OCCO2 | 5.57 |
| CC(=O)Nc1ccc(S(=O)(=O)Nc2cc3c(cc2C(C)=O)OCO3)cc1 | 12.7 |
| COC(=O)c1sc(S(=O)(=O)NC(Cc2ccccc2)C(=O)O)c(C(=O)OC)c1C (centres unmarked) | 13.9 |
| CC1=C(C(=O)OC(C)C)C(c2ccccc2Cl)CC(=O)N1 (centres unmarked) | 8.98 |
| O=C(Nc1ccccc1)c1ccc(NC(=O)C2CC2)cc1 | 8.74 |
| CCOC(=O)C1=C(C)N(C)C(=S)NC1c1cccc(Cl)c1Cl (centres unmarked) | 8.7 |
| Oc1ccc(-c2nc3ccccc3s2)c(O)c1 | 14.2 |
| COC(=O)C1=C(N)Oc2cc(C)[nH]c(=O)c2C1c1ccc(Cl)cc1 (centres unmarked) | -3.06 |
| CCCCNC(=O)c1ccccc1NC(=O)c1ccccc1N(C)S(C)(=O)=O | 13.1 |
| N#CCCN1CCNCC1 | 11.7 |
| COc1cccc(OCC(Cn2cnc3ccccc32)OC(C)=O)c1 (centres unmarked) | -8.19 |
| CS(=O)(=O)N1CCc2cc(C(=O)Nc3ccccc3Br)ccc21 | 11.5 |
| CCC1CCCCN1Cc1cc(OC)c(O)c([N+](=O)[O-])c1 (centres unmarked) | 11.7 |
| CCN(CC)S(=O)(=O)c1cccc(C(=O)Nc2ccccc2)c1 | -0.175 |
| COc1sc(SC)cc1/C=N/NC(=O)c1ccncc1 | 18.9 |
| OC(Cn1c2ccccc2c2ccccc21)C[n+]1ccccc1.[O-][Cl+3]([O-])([O-])[O-] (centres unmarked) | 5.52 |
| c1cncc(CSc2nnc3ccc(-c4cccs4)nn23)c1 | 0.906 |
| COc1ccc(CNC(=O)CCC(=O)N2CCN(S(=O)(=O)c3ccc(Cl)cc3)CC2)cc1 | 12.9 |
| Brc1c(-c2ccccc2)nc2n1Cc1ccccc1-2 | 17.5 |
